This is one part of the list.

This assay relates to HepG2. Kind of assay: cytotoxicity call (relative viability < 0.9). To be noted: 10 µM.
`O=C1OCCC=C[C@H]2O[C@@]34C=CCN(c5ccc6ccccc6c5)C(=O)[C@H]3N(CCCCCO)C(=O)[C@@H]4[C@@H]12`: the cytotoxicity call is “inactive”. For `COc1ccc(CN(C)C[C@H]2Oc3ccc(NC(=O)Cn4cnnn4)cc3CC(=O)N([C@@H](C)CO)C[C@@H]2C)cc1` the value was “inactive”; for `COc1ccc(CN(C)C[C@@H]2OCCCC[C@H](C)Oc3ccc(NS(=O)(=O)c4ccccc4)cc3C(=O)N([C@H](C)CO)C[C@@H]2C)cc1`, “inactive”; for `C[C@H](CO)N1C[C@H](C)[C@@H](CN(C)Cc2ccc(Oc3ccccc3)cc2)OCc2ccccc2-c2ccccc2C1=O`, “inactive”. On to `COC(=O)[C@@H](N)c1cccc(OC)c1`, for which the cytotoxicity call was “inactive”. With `O=S1(=O)CCN(CCc2ccccc2)CC1`, the cytotoxicity call was “inactive”. Turning to `O=C1N[C@@H](CC(=O)N2CCN(CCc3ccncc3)CC2)C(=O)Nc2ccccc21`, the cytotoxicity call was “inactive”. Under `C[C@H](O)C#Cc1ccc2c(c1)O[C@H](CN(C)C(=O)c1ccncc1)[C@H](C)CN([C@@H](C)CO)S2(=O)=O` stands “inactive”; under `CCC1OC(=O)C(C)C(OC2CC(C)(OC)C(O)C(C)O2)C(C)C(OC2OC(C)CC(N(C)C)C2O)C(C)(O)CC(C)C2NC(COCCOC)OC(C2C)C1(C)O` (stereo not given), “inactive”; under `C[C@H]1CN([C@@H](C)CO)C(=O)c2cc(NC(=O)c3ccncc3)ccc2O[C@@H]1CN(C)Cc1ccc(C(=O)O)cc1`, “inactive”. For the molecule `C[C@@H]1CN([C@@H](C)CO)S(=O)(=O)c2ccc(C#CC3CC3)cc2O[C@H]1CN(C)C(=O)C1CCCCC1`, the cytotoxicity call is “inactive”. For `C[C@H](CO)N1C[C@H](C)[C@@H](CN(C)C(=O)Nc2ccc3c(c2)OCO3)OCCCC[C@H](C)Oc2ccc(NC(=O)Cc3ccccc3)cc2C1=O` the value was “inactive”; for `COc1ccc(NC(=O)Nc2ccc3c(c2)C(=O)N([C@H](C)CO)C[C@H](C)[C@H](CN(C)C(=O)Nc2ccc4c(c2)OCO4)OCCCC[C@@H](C)O3)cc1`, “inactive”; for `C[C@@H]1CCCCO[C@H](CN(C)C(=O)Nc2ccc(F)cc2)[C@@H](C)CN([C@H](C)CO)C(=O)c2cc(NC(=O)Nc3ccc4c(c3)OCO4)ccc2O1`, “inactive”. For `COc1ccc(S(=O)(=O)Nc2ccc3c(c2)CC(=O)N([C@@H](C)CO)C[C@H](C)[C@H](CN(C)S(=O)(=O)c2c(C)noc2C)O3)cc1` the value was “inactive”; for `NCCCCCCNC(=O)[C@H]1C[C@H]2C(=O)N[C@@H](CCCCN)C(=O)N2[C@H]1c1ccc(O)cc1`, “inactive”. On to `O=C(C[C@H]1CC[C@H](NC(=O)c2ccc(F)cc2)[C@H](CO)O1)NCc1ccncn1`, for which the cytotoxicity call is “inactive”. `CO[C@H]1CN(C)C(=O)c2ccc(NS(C)(=O)=O)cc2OC[C@H](C)N(C(=O)C2CCCCC2)C[C@@H]1C`: the cytotoxicity call was “inactive”. Regarding `Cc1noc(C)c1S(=O)(=O)Nc1ccc2c(c1)C(=O)N([C@@H](C)CO)C[C@H](C)[C@H](CN(C)S(=O)(=O)c1cn(C)cn1)OCCCC[C@H](C)O2`, the cytotoxicity call is “inactive”. Turning to `C=CC[C@@H](CC(=O)N[C@H](CO)Cc1ccccc1)C(=O)NCCOC(=O)[C@@H](CC=C)CC(=O)OC(C)(C)C`, the cytotoxicity call is “inactive”. Regarding `O=C(CN1CCOCC1)NCC[C@@H]1CC[C@H](NS(=O)(=O)c2ccc(F)cc2)[C@H](CO)O1`, the cytotoxicity call was “inactive”. For `CN(C)CC#Cc1ccc([C@@H]2[C@@H](CO)N3C(=O)CN(C(=O)CN(C)C)C[C@H]23)cc1` the value was “inactive”; for `Cn1cnc(CCNC(=O)C[C@H]2CC[C@@H]3[C@H](COC[C@H](O)CN3C(=O)Nc3ccc(C(F)(F)F)cc3)O2)c1`, “inactive”. For `COc1ccc(NC(=O)Nc2ccc3c(c2)C(=O)N([C@H](C)CO)C[C@H](C)[C@H](CN(C)Cc2ccc4c(c2)OCO4)OCCCC[C@@H](C)O3)cc1` the value was “inactive”; for `CC(C)N(CCCNC(=O)Nc1ccc(C(C)(C)C)cc1)C[C@H]1O[C@@H](n2cnc3c(N)ncnc32)[C@@H](O)[C@H]1O`, “inactive”. Turning to `C=CCNC(=O)[C@H]1[C@@H]2C(=O)O[C@@H](c3ccccc3)[C@@H](c3ccccc3)N2[C@@H](c2ccc(O)cc2)[C@]12C(=O)Nc1ccc(C#Cc3ccc(OC)cc3)cc12`, the cytotoxicity call was “inactive”. For `O=C1COC2(CCN(C(=O)c3ccno3)CC2)CN1` the value was “inactive”; for `CNC[C@@H]1OCCCC[C@@H](C)Oc2ccc(NC(=O)Nc3cccc4ccccc34)cc2C(=O)N([C@H](C)CO)C[C@@H]1C`, “inactive”; for `Cc1ccc(S(=O)(=O)N(C)C[C@@H]2Oc3ncc(C#CCN(C)C)cc3C(=O)N([C@H](C)CO)C[C@@H]2C)cc1`, “inactive”. For `CCCC(NC(C)C(=O)N1C(C(=O)O)CC2CCCCC21)C(=O)O` (stereo not given) the value was “inactive”. With `CO[C@@H]1CN(C)C(=O)c2cc(NS(=O)(=O)c3ccccc3)ccc2OC[C@@H](C)N(C(=O)NC(C)C)C[C@H]1C`, the cytotoxicity call was “inactive”.

In the case of `C[C@@H]1CN([C@H](C)CO)C(=O)Cc2cc(NC(=O)CCN3CCOCC3)ccc2O[C@H]1CN(C)Cc1ccc(C(=O)Nc2ccccc2N)cc1`, the cytotoxicity call is “inactive”. Consider `Cc1noc(C)c1NC(=O)Nc1ccc2c(c1)C(=O)N([C@H](C)CO)C[C@@H](C)[C@@H](CN(C)Cc1ccc(Cl)c(Cl)c1)O2`, for which the cytotoxicity call was “inactive”. Take `CCS(=O)(=O)Nc1ccc2c(c1)C(=O)N(C)[C@@H]1CC[C@@H](CC(=O)N[C@H]3CCN(Cc4ccccc4)C3)O[C@H]1CO2`: the cytotoxicity call was “inactive”. Regarding `CNC(=O)C(=O)Nc1ccc(N2CCCS2(=O)=O)cc1`, the cytotoxicity call was “inactive”. For `C[C@@H]1CN([C@@H](C)CO)C(=O)c2cccc(NC(=O)Nc3ccc(F)cc3)c2O[C@@H]1CN(C)Cc1ccc(-c2ccccc2)cc1` the value was “active”; for `CN(C)CC(=O)N1[C@@H]2c3ccc(-c4ccccc4)c(=O)n3C[C@H]1[C@H](CO)[C@H]2C(=O)N1CCN(C)CC1`, “inactive”. For `C[C@@H]1CN([C@@H](C)CO)C(=O)c2cc(NC(=O)c3ccncc3)ccc2O[C@@H](C)CCCCO[C@H]1CN(C)CC1CCCCC1` the value was “inactive”; for `C[C@@H]1CN([C@H](C)CO)S(=O)(=O)c2ccc(-c3ccc(C(=O)N(C)C)cc3)cc2O[C@@H]1CN(C)C(=O)Cc1ccccn1`, “inactive”; for `CC(C)NC(=O)Nc1ccc2c(c1)CC(=O)N([C@@H](C)CO)C[C@H](C)[C@H](CN(C)S(=O)(=O)c1cccs1)O2`, “inactive”.

Source of the values: the antibiotic and cytotoxicity screens of Wong et al. (2023).
